Test results: PubChem BioAssay AID485281 (National Center for Advancing Translational Sciences (NCATS), 2010)
Hit rate of the full screen: of about 350,000 compounds, about 260 (0.074%) were called active. The shares of active, inactive and inconclusive entries below differ from those in the screen. The call rests on the fitted dose curve; in most records, active means well fitted inhibition curve with a large enough effect; inconclusive means small, poorly fitted or top-dose-only effect; inactive means no such curve, though single readings can be large or run the other way. Where the call is inconclusive, the potency comes from a doubtful curve fit.

Each molecule was assayed against Ferritin light chain (Equus caballus) (UniProt P02791) (assay: qHTS Assay for Identification of Novel General Anesthetics). Conditions: apoferritin/1-aminoanthracene competitive binding, fluorescence; series mostly up to 77.5 µM.
From the text: Source: NIH Chemical Genomics Center [NCGC]
Assay Submitter: Roderic Eckenhoff, University of Pennsylvania
Screening Center PI: Christopher P. Austin, NIH
Probe Development: NIH Chemical Genomics Center [NCGC]
Anesthetic development has remained a largely empirical process. There are growing concerns about the cognitive effects of known general anesthetics and acceleration of the onset of neurodegenerative disease. The compounds' toxicity and multiple specific binding targets in the mammalian brain [4] has made them less attractive as drug leads. In this assay, a GABAergic mimetic model system, apoferritin and a profluorescent 1-aminoanthracene ligand (1-AMA), was used to construct a competitive binding assay for identification of novel general anesthetics. The assay was validated for 1-AMA using other known anesthetics, such as isoflurane (CID:3763) and propofol (CID: 4943), [6].
[1] S.L. Bianchi, T. Tran, C. Liu, S. Lin, Y. Li, J.M. Keller, R.G. Eckenhoff, and M.F. Eckenhoff, Brain and behavior changes in 12-month-old Tg2576 and nontransgenic mice exposed to anesthetics. Neurobiol Aging 29 (2008) 1002-10.
[2] Z. Xie, Y. Dong, U. Maeda, R.D. Moir, W. Xia, D.J. Culley, G. Crosby, and R.E. Tanzi, The inhalation anesthetic isoflurane induces a vicious cycle of apoptosis and amyloid beta-protein accumulation. J Neurosci 27 (2007) 1247-54.
[3] P. Honegger, and J.M. Matthieu, Selective toxicity of the general anesthetic propofol for GABAergic neurons in rat brain cell cultures.
[4] M.F. Eckenhoff, K. Chan, and R.G. Eckenhoff, Multiple specific binding targets for inhaled anesthetics in the mammalian brain. J Pharmacol Exp Ther 300 (2002) 172-9.
[5] C.A. Butts, J. Xi, G. Brannigan, A.A. Saad, S.P. Venkatachalan, R.A. Pearce, M.L. Klein, R.G. Eckenhoff, and I.J. Dmochowski, Identification of a fluorescent general anesthetic, 1-aminoanthracene. Proc Natl Acad Sci U S A 106 (2009) 6501-6.
[6] W.A. Lea, J. Xi, A. Jadhav, L. Lu, C.P. Austin, A. Simeonov, and R.G. Eckenhoff, A high-throughput approach for identification of novel general anesthetics. PLoS One 4 (2009) e7150.
Three uL of reagents (free 1-AMA (50% saturated solution of 1-aminoanthracene
in PBS) in columns 3, 4 as negative control and 1-AMA/apoferritin mixture (10 uM horse-spleen apoferritin in 50% saturated 1-aminoanthracene in PBS) in columns 1, 2, 5-48) was dispensed into 1536-well Greiner black assay plates. Compounds (23 nL) were transferred via Kalypsys pintool equipped with 1,536-pin array (10 nL slotted pins, V&P Scientific, San Diego, CA). Titration of the positive control, propofol, were delivered via pin transfer from separate control plates to the 2nd column of each assay plate. The starting concentration of the control, dissolved in DMSO, was at 160 mM, followed by two-fold dilution points in duplicate, for a total of 16 concentrations. The plates were incubated for 10 min at room temperature, and then read on an EnVision HTS multilabel reader (Perkin-Elmer, Waltham, MA) (end point read, 3 min/plate) using Fura2 BFP excitation filter (380 nm, bandwidth 10 nm) and fluorescein emission filter (535 nm, bandwidth 25 nm) set. A LANCE/DELFIA dichroic mirror with a cutoff wavelength at 400 nm was used to maximize signal accuracy and strength. […] Activity was computed as the normalized fluorescence response relative to free 1-AMA and 1-AMA/apoferritin complex values. […]
Further: nearly all actives have a fitted effect of over 20% in size.
Potency means the concentration at half of the fitted maximal effect; tags describe the fitted curve by direction and shape.

Chain of UniProt P02791 (P02791 whole entry, looked up): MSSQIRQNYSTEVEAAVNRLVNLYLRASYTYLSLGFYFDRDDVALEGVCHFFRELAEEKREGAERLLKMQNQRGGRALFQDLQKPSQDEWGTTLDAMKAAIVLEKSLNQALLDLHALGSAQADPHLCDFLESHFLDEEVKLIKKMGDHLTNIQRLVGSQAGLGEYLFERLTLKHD

Q: How did the Potency turn out when O=C1NN(c2ccc(F)c(Cl)c2)C(=O)/C1=C\c1cccc(OC(=O)c2cccs2)c1 was run?
A: inconclusive: 35.5 µM [inhibitor, partial curve]

Q: For COC(=O)c1sc(-c2ccc(C(C)(C)C)cc2)cc1NC(=O)COCC(=O)O, which Potency is on record?
A: inconclusive: 50.1 µM [inhibitor, single point]

Q: With Cc1cc(C)cc(-n2cccc2/C=C2/C(=N)N3C(=NC2=O)SN=C3S(C)(=O)=O)c1 as the molecule, how does the Potency read?
A: inconclusive: 28.2 µM [inhibitor, single point]

Q: How did the Potency turn out when O=C(O)c1cc(NC(=O)c2ccc(Br)cc2)cc(NC(=O)c2ccc(Br)cc2)c1 was run?
A: inconclusive: 17.8 µM [inhibitor, partial curve]

Q: With CC(C)(C)CC(C)(C)c1ccc(OCC(=O)N/N=C/c2ccc(S(=O)(=O)O)o2)cc1 as the molecule, how does the Potency read?
A: inconclusive: 28.2 µM [inhibitor, single point]
